# According to publication PMC12040169 (PLOS Biology, 2025):
# The list shows a part of the results.
# Tested on: T1, C. trachomatis L2/434/Bu expressing GFP (CTL2-GFP)
# T1 construct: L2/434/Bu GFP intracellular growth in HeLa cells
# Set-up: species or system HeLa; C. trachomatis total inclusion area by high-content imaging, normalised to DMSO
# Settings: total inclusion area; 28.5 h, 10 µM; inhibitor
# How it was run: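 High-content imaging followed the bulk GFP/resorufin measurement: fixed, Hoechst-stained cells were scored for GFP inclusions and host nuclei per well. Total inclusion area and count served as growth proxies, nuclei number as the viability proxy. MIC calculation matched the bulk assay.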
row,Structure (SMILES),% of control remaining
1,Cc1coc(C)c1C(=O)CC1(O)C(=O)N(CCCC#N)c2ccccc21 (stereo not drawn) [CBK307383],61.8574
2,Nc1ccc(-n2c(-c3ccccc3)c3c(c2-c2ccc(Cl)cc2)C(=O)c2ccccc2C3=O)cc1 [CBK262695],101.441
3,COc1ccccc1C(=O)N1CCC[C@@H](N)[C@@H]1c1ccccc1F [CBK283458],104.063
4,COC(=O)c1ccc(S(N)(=O)=O)o1 [CBK113186],87.7173
5,CS(=O)(=O)c1sc(C(=O)O)c2c1C=CCC2 [CBK005513],94.9564
6,Oc1cc(C(F)(F)F)nc(N2CCc3ccccc3C2)n1 [CBK000344],80.726
7,COc1cccc(C2CC(c3cccc(Cl)c3)n3nc(N)nc3N2)c1 (stereo not drawn) [CBK293966],103.001
8,COc1ccc(CCN2CCC(Oc3nccnc3NS(C)(=O)=O)CC2)cc1OC [CBK084285],93.5405
9,COc1cc(NC(=O)c2ccc3c(c2)C(=O)N(Cc2ccccc2)C3=O)c(C(=O)O)cc1OC [CBK266544],122.349
10,CC(=O)NC(c1ccccn1)C1CCCN(C(=O)C2CCCCC2)C1 (stereo not drawn) [CBK285031],85.7809
11,CN(C)c1ccccc1-c1cc(NCCc2ccccn2)ncn1 [CBK037189],111.188
12,Cc1cc(C(F)F)nn1CC(=O)N1CCc2ncc(Cl)cc2C1 [CBK284853],68.0881
13,O=C(COC(=O)c1ccc2c(c1)C(=O)N(c1cccc(Cl)c1)C2=O)c1ccc(Br)cc1 [CBK262324],126.595
14,c1cc(-c2ccc(Nc3ccc(N4CCOCC4)cc3)nc2)cs1 [CBK036844],160.581
15,O=C1CC(N2CCN(Cc3ccc4c(c3)OCO4)CC2)C(=O)N1c1ccc(Br)cc1 (stereo not drawn) [CBK074544],95.5875
16,c1ccc(-c2nnc(CSc3nnc(-c4ccncc4)[nH]3)o2)cc1 [CBK269962],74.4809
17,COc1cc(/C=N/n2c(S)nnc2-c2cccnc2)ccc1OCc1ccccc1 [CBK265307],119.174
18,Cc1ccc(Cl)cc1Nc1nc2nc(C)c(NCC3CC3)cn2n1 [CBK008522],32.6352
19,CCOc1ccc(NC(=O)COc2ccccc2/C=C/C(=O)O)cc1 [CBK286935],88.6037
20,O=C(Nc1cnc(-c2cccc(OC(F)(F)F)c2)c(-c2cccnc2)n1)c1ccccn1 [CBK036837],117.91
21,CCCn1ncc(CN2CCC3(CC2)CC(C(=O)O)N(C(C)=O)C3)c1C (stereo not drawn) [CBK306612],71.2923
22,COc1cccc(N2CCN(c3cc4n[nH]c(=O)n4cn3)CC2)c1 [CBK300511],82.6237
23,CC(C)(C)C(=O)N[C@H]1C[C@@H](Cc2cc(CN3CCOCC3)on2)C1(C)C [CBK289247],94.3064
24,CCC(CN1CCOCC1)n1cncc1-c1[nH]c2ccccc2c1C (stereo not drawn) [CBK281800],105.852
25,CN1C(=O)C(CC(=O)NCCCc2ccc(F)cc2)c2ccccc21 (stereo not drawn) [CBK282474],99.6696
26,Cc1cc(NC(=O)C2COc3ccccc3O2)c2ccccc2n1 (stereo not drawn) [CBK115871],109.435

row,Structure (SMILES),% of control remaining
1,C=Cn1ncc(CN2CCC3(O)CCCCC3C2)c1C (stereo not drawn) [CBK283302],108.817
2,Cc1cc(/C=C\c2nc(O)c([N+](=O)[O-])c(=O)[nH]2)c(C)n1-c1ccc(C(=O)O)cc1 [CBK267334],127.035
3,O=C(O)c1ccc(N2CCN(CCO)CC2)c([N+](=O)[O-])c1 [CBK264911C],115.585
4,CCCC/C=C/c1cncc(N2CCN(c3ccccn3)CC2)n1 [CBK037276],77.6906
5,Cc1ccc(C2=CCN(CC(=O)Nc3ncc(C)s3)CC2)o1 [CBK283383],117.118
6,COc1ccc2[nH]c3c(c2c1)CCN(C=O)C31CCCN(CCC#N)C1 (stereo not drawn) [CBK039445],97.0136
7,COC(=O)c1ccc(N2C(=O)CC(SCCc3nc4ccccc4[nH]3)C2=O)cc1 (stereo not drawn) [CBK267188],116.615
8,Cc1ccc(Oc2ccc([N+](=O)[O-])cc2)c(Br)c1 [CBK002832],104.831
9,O=C(O)C1CC1C(=O)N1CC2(CCCC2)c2c(F)cccc21 (stereo not drawn) [CBK306360],49.7783
10,O=S(=O)(NC[C@H]1C[C@@H]2CC[N@]1C[C@@H]2CN1CCOCC1)c1ccc(Cl)cc1 [CBK288762],119.772
11,Cn1c(=O)c2c(nc(Nc3ccc(Cl)cc3Cl)n2CC(=O)O)n(C)c1=O [CBK286792],114.92
12,CCc1nn2c(=O)cc(CNc3ccccc3CN(C)C(C)=O)nc2s1 [CBK305604],25.4114
13,Cc1nn(CC(=O)OC2CCCCC2)c(=O)c2cc3ccsc3n12 [CBK284058],89.5193
14,CCOC(=O)Nc1ccc2c(c1)N(C(=O)CN1CCOCC1)c1ccccc1CC2 [CBK261286C],91.3672
15,CCn1cc(CN2CCN(C(=O)c3csc(C(C)C)c3)CC2)cn1 [CBK282044],90.0041
16,C=CCNc1nccnc1-c1cc(OC)c(OC)c(OC)c1 [CBK036872],83.1845
17,Cc1c(C(=O)Nc2ccc(Cl)cc2)sc2c1C(c1cccnc1)CC(=O)N2 (stereo not drawn) [CBK288233],39.8892
18,O=C(Cn1cc(-c2ccc(CN3CCCCC3)cc2)nn1)NCc1ccc(C2CCC2)cc1 [CBK167547],94.7475
19,CC1=C[C@@H](CO)[C@H](C(C)C)C[C@H]1CC(=O)N1CCN(CCO)CC1 [CBK289217],111.423
20,CNCc1cc(Br)c(OCC(=O)Nc2ccccc2OC)c(OC)c1 [CBK107772],78.6016
21,c1cc(-c2cnc(N3CCOCC3)c3nccn23)c2cccnc2c1 [CBK091270],83.2036
22,O=C(Nc1cc(Cl)ccc1C(=O)NC1CCC(O)CC1)c1cccs1 (stereo not drawn) [CBK306186],47.5048
23,O=c1c([N+](=O)[O-])c(O)c2ccccc2n1Cc1ccccc1 [CBK291182],108.206
24,CC1Cc2cc(-c3cncn3CC(=O)NC(C)(C)C)ccc2N1C (stereo not drawn) [CBK281699],97.1271
25,C=C(C)Cn1c(-c2ccc(N)cc2)nc2ccccc21 [CBK287581],77.9898
26,C[C@@H](Nc1cncc(-c2ccccc2CO)n1)c1ccccc1 [CBK065543],122.145

row,Structure (SMILES),% of control remaining
1,COc1nc2ccn(CC(O)CO)c(=O)c2cc1C#N (stereo not drawn) [CBK307251],85.1109
2,Cc1cc(C)n(-c2ccnc(NCCc3cccnc3)n2)n1 [CBK288615],58.2805
3,Cc1ccc(C(=O)N2CCC(c3nc4ccccc4s3)CC2)cc1NS(C)(=O)=O [CBK254629],111.283
4,Fc1ccc(-c2cncc(Nc3cccc(C(F)(F)F)c3)n2)c(F)c1 [CBK065763],150.184
5,Cn1c(SCc2cccc3ccccc23)nnc1-c1ccc(NC(=O)/C=C/c2ccccc2)cc1 [CBK265034],110.711
6,O=C(NCCCN1CCOCC1)C1CCCN1S(=O)(=O)c1ccc(Cl)cc1 (stereo not drawn) [CBK269944],93.5872
7,CC1CCN(CCNC(=O)CCc2nc3ccc(Cl)cc3[nH]2)CC1 [CBK281599],86.7354
8,COc1ccccc1CN1CCC(Cc2ccccc2-c2ccccc2)(C(N)=O)CC1 [CBK285719],106.935
9,O=[N+]([O-])c1ccc(NCCCNS(=O)(=O)c2ccc3ccccc3c2)c(Cl)c1 [CBK262006],100.028
10,Cc1cc(=O)[nH]c(SCc2nc3ccccn3c2Br)n1 [CBK296063],103.807
11,CCCC(=O)N1CCC(c2nc3ccc(F)cc3cc2N)CC1 [CBK284655],99.2749
12,OC(CN1CCC(O)(c2cccc(C(F)(F)F)c2)CC1)c1ccccc1 (stereo not drawn) [CBK286324],79.1833
13,COc1ccc(OCC(=O)Nc2ccc3c(c2)nc2n3CCN(Cc3ccccc3)C2)cc1 [CBK266989],108.78
14,O=C(CCn1ccc2ccncc21)NCCc1c[nH]c2ccccc12 [CBK284760],58.2826
15,COc1c(S(=O)(=O)N2CCN(Cc3ccc4c(c3)OCO4)CC2)ccc(Cl)c1Cl [CBK074423],86.0897
16,O=S(=O)(c1cccc(C(F)(F)F)c1)N1CCN(Cc2ccc3c(c2)OCO3)CC1 [CBK074594],77.4547
17,CCn1ncc(CN2CCN(C(=O)c3nn(C)cc3C(=O)O)CC2)c1C [CBK286870],104.206
18,O=C1CC(c2cc(Br)ccc2F)c2scc(-c3ccccc3F)c2N1 (stereo not drawn) [CBK294440],92.7896
19,O=C1CN(C(=O)NCc2ccc(F)cc2)CCN1 [CBK155869],106.835
20,CCCN1CCC2CN(CCCC(=O)c3ccc(F)cc3)CCN2C1=O (stereo not drawn) [CBK024882C],58.7635
21,O=C(CCN1C(=O)COc2ccccc21)Nc1ccnn1Cc1ccccc1Br [CBK296740],113.13
22,Cc1ccc(CN2CCCN(C(=O)CCn3cnc4c(cnn4C)c3=O)CC2)cc1 [CBK297793],84.282
23,O=C(C1CCN(Cc2ccc(F)cc2)CC1)N1CCN(C/C=C/c2ccccc2)CC1 [CBK264325G],79.1915
24,COc1ccc(NCc2cc3sccc3n2C)cc1OC [CBK283486],111.914
25,Cc1ccc(-c2cc(C(=O)Nc3ccc(S(N)(=O)=O)cc3)c3ccc(Cl)c(C)c3n2)cc1 [CBK267745],96.7995
26,Cc1cnn(C2CCN(C(=O)NC(C)C3OCCc4sccc43)C2)c1 (stereo not drawn) [CBK304159],46.998
